In all, about 310,000 compounds went through this assay and about 14,000 (4.5%) showed an effect of 50% or more. The effect is printed as a negative number. The list shows a part of the results.
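Note: peak tail current of the secondary pulse compared with the same well before compound.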

human ether-à-go-go-related gene (hERG) potassium channel, sequence (Q12809 whole entry, looked up): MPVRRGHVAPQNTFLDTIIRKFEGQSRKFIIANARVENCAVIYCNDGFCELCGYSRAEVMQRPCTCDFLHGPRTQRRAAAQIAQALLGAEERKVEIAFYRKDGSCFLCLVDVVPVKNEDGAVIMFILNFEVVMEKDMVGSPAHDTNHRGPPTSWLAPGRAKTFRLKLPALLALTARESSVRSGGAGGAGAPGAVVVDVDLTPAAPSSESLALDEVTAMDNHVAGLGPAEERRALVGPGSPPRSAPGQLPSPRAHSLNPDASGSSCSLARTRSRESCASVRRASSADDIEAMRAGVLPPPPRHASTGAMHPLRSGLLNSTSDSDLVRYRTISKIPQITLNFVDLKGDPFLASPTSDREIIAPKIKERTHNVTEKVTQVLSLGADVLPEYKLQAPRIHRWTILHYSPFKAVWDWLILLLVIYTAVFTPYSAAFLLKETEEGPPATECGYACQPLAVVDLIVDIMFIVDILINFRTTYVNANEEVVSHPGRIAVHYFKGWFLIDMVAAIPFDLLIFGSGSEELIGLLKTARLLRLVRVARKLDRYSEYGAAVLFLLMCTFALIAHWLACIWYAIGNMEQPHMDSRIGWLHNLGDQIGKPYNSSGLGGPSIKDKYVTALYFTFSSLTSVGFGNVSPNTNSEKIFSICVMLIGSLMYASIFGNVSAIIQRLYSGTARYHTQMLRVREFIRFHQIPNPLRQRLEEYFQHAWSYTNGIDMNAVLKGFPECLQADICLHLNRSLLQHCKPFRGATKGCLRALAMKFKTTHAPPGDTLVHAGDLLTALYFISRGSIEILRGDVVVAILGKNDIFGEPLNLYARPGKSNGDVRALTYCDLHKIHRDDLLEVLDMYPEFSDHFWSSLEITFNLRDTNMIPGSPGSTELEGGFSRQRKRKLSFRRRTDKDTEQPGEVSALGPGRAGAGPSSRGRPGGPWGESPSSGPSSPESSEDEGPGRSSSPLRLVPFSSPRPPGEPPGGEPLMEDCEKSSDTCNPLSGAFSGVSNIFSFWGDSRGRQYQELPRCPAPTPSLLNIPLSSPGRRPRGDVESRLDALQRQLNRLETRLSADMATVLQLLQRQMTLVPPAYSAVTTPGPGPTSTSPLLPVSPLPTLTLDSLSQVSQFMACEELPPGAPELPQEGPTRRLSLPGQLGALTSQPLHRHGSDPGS

The test addresses human ether-à-go-go-related gene (hERG) potassium channel (human, UniProt Q12809). Put plainly: primary screen, population patch clamp on CHO cells stably expressing hERG.
For `CC(=O)c1ccc(/C=C/c2nc3ccccc3n2C)o1`, the “hERG current change (%, negative = inhibition) at 10uM” value is on record as -5.96%. The result for `Cc1ccc(CN2CCN(Cc3nc4ccccc4nc3C)CC2CCO)cc1` (centres unmarked) reads -69.7%; that for `COc1ccc(NS(=O)(=O)c2cc(NC(=O)c3cnccn3)ccc2OC)cc1Br`, 15.2%; that for `CN(C)/C=C(\C(=O)c1ccc(Cl)cc1)c1nnnn1-c1ccc(Cl)cc1`, -25.7%. As for `O=C(N/N=C\c1ccccc1OCc1ccccc1)c1ccco1`, the “hERG current change (%, negative = inhibition) at 10uM” value stood at 2.38%. Regarding `COc1ccc(S(=O)(=O)NCC2CCCN(Cc3cn(C)nc3C)C2)cc1` (centres unmarked), the “hERG current change (%, negative = inhibition) at 10uM” value was 8.1%. Under `CCc1cccc(NC(=O)C2CCCN(S(=O)(=O)c3cccnc3)C2)c1` (centres unmarked) stands -5.51%; under `C(=N\N1CCOCC1)/c1cn(-c2ccccc2)nc1-c1ccccc1`, -23.7%; under `CC(=O)/C=C\c1cn(-c2ncc(C(F)(F)F)cc2Cl)c2ccccc12`, 9.87%. Under `O=C1CCCN1CC(O)CS(=O)(=O)Cc1ccc(Cl)cc1` (centres unmarked) stands 14.9%; under `COc1ccc(NC(=O)CSc2nc3c(c(=O)n2C)SCC3)cc1OC`, -18.7%. In the case of `COc1ccc(CCN(C(=O)C(F)(F)F)C(C(=O)NC2CCCC2)c2cccs2)cc1OC` (centres unmarked), the “hERG current change (%, negative = inhibition) at 10uM” value was -13%.

Consider `O=C(NN=C1c2ccccc2-c2ccccc21)c1ccccn1`, for which the “hERG current change (%, negative = inhibition) at 10uM” value is listed as 5.17%.

For `Cc1cccc(CN2CCN(c3nc4nonc4nc3NC3CC3)CC2=O)c1`, the “hERG current change (%, negative = inhibition) at 10uM” value was found to be 7.7%. `COCC(=O)N1CCCC(C(=O)c2ccc(Oc3ccccc3)cc2)C1` (centres unmarked): the “hERG current change (%, negative = inhibition) at 10uM” value is reported as -34.1%. Under `COC(=O)c1ccc(CN2CCCC(CCC(=O)NCc3ccc(C)o3)C2)cc1` (centres unmarked) stands -67.5%.

As to `Cc1nnc(SC(C(=O)c2ccccc2)c2ccccc2)[nH]c1=O` (centres unmarked), the “hERG current change (%, negative = inhibition) at 10uM” value is given as -1.2%. The result for `Cc1nnc(-c2cnn(C)c2N)n1Cc1cccc(Cl)c1` reads 14%; that for `O=C(N/N=C/c1ccc2ccccc2c1)c1ccc(COc2ccc3c(c2)CCC3)o1`, 8.11%. With `O=C(OCc1nc2ccccc2s1)c1ccc(Br)s1`, the “hERG current change (%, negative = inhibition) at 10uM” value was found to be 22.5%. In the case of `CCn1c(C)nnc1SCC(=O)Nc1nccs1`, the “hERG current change (%, negative = inhibition) at 10uM” value is given as 9.79%. The result for `CC(=O)C1=C(C)NC(SCc2cccc3ccccc23)=C(C#N)C1c1ccco1` (centres unmarked) reads -7.34%. With `COc1ccc(-c2nc(N)ncc2-c2ccccc2)c(O)c1`, the “hERG current change (%, negative = inhibition) at 10uM” value is recorded as -7.11%. For `CCn1cc(CN2CCC(C(=O)Nc3cccc(-c4cscn4)c3)CC2)cn1`, the “hERG current change (%, negative = inhibition) at 10uM” value is reported as -15.4%.

Regarding `CCCC(=O)Nc1nc(-c2ccc3c(c2)OCCO3)cs1`, the “hERG current change (%, negative = inhibition) at 10uM” value was -12.2%. Under `O=c1[nH]c2ccc(NCc3ccc(F)cc3)cc2[nH]1` stands 8.5%; under `CS(=O)(=O)N(CC(=O)N1CCc2ccccc2C1)c1ccc2c(c1)OCO2`, -11.8%.

As for `Cc1ccc(N(C(=O)Cc2cccs2)C(C(=O)NC2CCCC2)c2ccncc2)cc1` (centres unmarked), the “hERG current change (%, negative = inhibition) at 10uM” value was determined as 8.09%.

`COc1ccccc1/C=C/C(=O)OCC(=O)N1c2ccccc2CC1C` (centres unmarked): the “hERG current change (%, negative = inhibition) at 10uM” value is 9.81%. The result for `O=C(CSc1nnc(COc2ccc(Cl)cc2)o1)NC1CCCCC1` reads -21.5%; that for `O=c1[nH]c(=O)n(-c2ccc(F)cc2)c(O)c1C=Nc1ccccc1N1CCCC1`, -0.133%; that for `Cc1cc(C)c(C#N)c(Cl)n1`, -2.53%. For the molecule `O=C(CCCSc1nc(-c2ccco2)cc(C(F)(F)F)n1)NCC1CCCO1` (centres unmarked), the “hERG current change (%, negative = inhibition) at 10uM” value is listed as -10.4%. Under `Cc1ccc(NC(=O)C2CCCN2C(=O)c2cccs2)c(C)c1` (centres unmarked) stands 12.7%. Take `O=C(O)Cn1cnc2c(=S)nc[nH]c21`: the “hERG current change (%, negative = inhibition) at 10uM” value was 14%.

In the case of `COc1cc(C#N)ccc1OCC(=O)Nc1ccc(C)c(S(=O)(=O)N2CCOCC2)c1`, the “hERG current change (%, negative = inhibition) at 10uM” value is -36.1%.

Take `O=C(NCc1n[nH]c(=S)n1-c1ccc(Br)cc1)c1ccc(S(=O)(=O)N2CCOCC2)cc1`: the “hERG current change (%, negative = inhibition) at 10uM” value amounted to 22.9%. Under `O=C(NCc1ccc2c(c1)OCO2)c1ccc(Cl)c(S(=O)(=O)NCc2ccccc2)c1` stands -47.3%.

Consider `O=C(Cc1ccccc1)NC(=S)Nc1cccc(C(F)(F)F)c1`, for which the “hERG current change (%, negative = inhibition) at 10uM” value was found to be 15.1%. For `COc1ccccc1OCc1nn[nH]n1`, the “hERG current change (%, negative = inhibition) at 10uM” value is given as 22.2%. The result for `Cn1c2ccccc2c2cc(/C=C(\NC(=O)c3ccccc3)C(=O)NCC(=O)O)ccc21` reads -3.42%; that for `CC1(c2nnc(-c3ccncc3)o2)CC(c2cccc(Cl)c2)=NO1` (centres unmarked), -7.49%. Regarding `COc1ccc(-n2nc(C(=O)NCC(=O)NC(C)C)c3ccccc3c2=O)cc1`, the “hERG current change (%, negative = inhibition) at 10uM” value was 13.7%. The result for `COc1ccc(-c2nn(-c3ccccc3)cc2C#N)cc1` reads -1.94%.

For the molecule `O=C(CSc1c2c(nc3cc(Cl)ccc13)CCCC2)NCc1ccco1`, the “hERG current change (%, negative = inhibition) at 10uM” value is -46.3%.

Take `Cn1ncc(Cl)c1C(=O)N1CCCc2ccccc21`: the “hERG current change (%, negative = inhibition) at 10uM” value is on record as 3.22%.

With `C[C@]12CC[C@@H]3c4ccc(OC(=O)c5ccccc5)cc4CC[C@H]3[C@@H]1CC[C@@H]2O`, the “hERG current change (%, negative = inhibition) at 10uM” value is 3.61%. Consider `O=C(Cc1ccc(F)cc1)Oc1ccc(C(=S)N2CCCC2)cc1`, for which the “hERG current change (%, negative = inhibition) at 10uM” value is given as -3.36%. Under `COc1ccccc1N1CCC(N2CCN(CC(C)(C)C)C(CCO)C2)CC1` (centres unmarked) stands -3.39%. Take `CC1CC(C)CN(C(=O)Cn2c(=O)n(CCCC(=O)NCc3ccco3)c(=O)c3sccc32)C1` (centres unmarked): the “hERG current change (%, negative = inhibition) at 10uM” value came out at 12%.

`CC(C)(C)n1cnc2cc(NS(=O)(=O)c3ccc(Br)cc3)ccc21`: the “hERG current change (%, negative = inhibition) at 10uM” value is -31.3%. Under `O=C(NCc1ccc(F)cc1)c1ccc(NC(=O)C2CCCO2)cc1` (centres unmarked) stands 3.15%; under `O=C1c2ccccc2C(=O)N1CCc1nc(-c2ccccn2)no1`, 2.78%. The result for `COC(=O)c1ccc(C(=O)OC)c(NC(=O)N2c3ccccc3Sc3ccccc32)c1` reads 0.726%. Take `CC1CCN(C(c2ccccc2)c2nnnn2C(C)(C)C)CC1.Cl` (centres unmarked): the “hERG current change (%, negative = inhibition) at 10uM” value was -16%.

On to `Cn1ccnc1CN1CCCCC1C(=O)Nc1ccc(Oc2cccnc2)cc1` (centres unmarked), for which the “hERG current change (%, negative = inhibition) at 10uM” value is reported as -6.72%. The result for `CC(NC(=O)C(=O)NCCN1CCN(C(=O)c2ccccc2Br)CC1)c1ccccc1` (centres unmarked) reads 6.37%; that for `O=C(OCC(F)(F)C(F)F)c1ccccc1C(=O)Oc1ccc(F)cc1F`, 9.98%; that for `Cn1cc(CNC(=O)c2cc(-c3ccc(Br)cc3)nc3ccccc23)cn1`, -21.3%. The result for `CC[n+]1ccc(C(=O)NCc2ccccc2)cc1.[Cl-]` reads 13%; that for `O=C(NCCCn1ccnc1)c1cccc(S(=O)(=O)Nc2ccccc2F)c1`, 13.5%. The result for `CSc1ncccc1C(=O)OCC(=O)NC(C)C` reads -0.02%; that for `CCN(C(=O)CSc1nnc(Nc2ccccc2C)s1)C1CCS(=O)(=O)C1` (centres unmarked), -6.24%; that for `COc1cccc(-c2nc3ccc(O)cc3c(=O)o2)c1`, 1.21%. For `Cn1c(N)c(N=Nc2ccc(S(N)(=O)=O)cc2)c(=O)n(C)c1=O`, the “hERG current change (%, negative = inhibition) at 10uM” value came to 27.6%. The result for `CC(C(=O)Nc1ncn[nH]1)N1C(=O)c2ccccc2C1=O` (centres unmarked) reads 17.4%; that for `COc1cc(CN2CC(C)CC(C)C2)cc([N+](=O)[O-])c1O` (centres unmarked), 6.83%. Under `CCn1c(Cc2ccccc2)nnc1SCC(=O)N1CCCCC1` stands 9.16%; under `CCOC(=O)c1c(/N=C/c2cccc([N+](=O)[O-])c2O)sc(C)c1C`, 15.7%.

For `Cc1ccc(S(=O)(=O)n2cccc2C)cc1`, the “hERG current change (%, negative = inhibition) at 10uM” value worked out at 8.19%. Take `O=C(NC1CCN(Cc2ccccc2)CC1)C1CCCN(S(=O)(=O)c2cccc3nonc23)C1` (centres unmarked): the “hERG current change (%, negative = inhibition) at 10uM” value is reported as -55.9%. Under `Cc1cc(Nc2ccc(Cl)cc2)n(-c2cccc(Cl)c2)n1` stands -14.6%; under `CCC(C)C1C(C#N)=C(N)Oc2n[nH]c(-c3ccccc3)c21` (centres unmarked), 7.56%. In the case of `O=C(NC1=NCCS1)c1cccs1`, the “hERG current change (%, negative = inhibition) at 10uM” value stood at 8.14%. The result for `Cc1ccc(C)c(NC(=O)CCN2C(=O)C3CC=CCC3C2=O)c1` (centres unmarked) reads 8.84%; that for `CCOC(=O)c1ccc(NC(=O)CSc2nnc(-c3cccs3)n2CC)cc1`, 5.69%; that for `CC(=O)Nc1ccc(S(=O)(=O)N2CCN(C(=O)c3ncoc3-c3ccc(F)cc3)CC2)cc1`, -7.72%. Under `O=C(O)c1cc(NC(=O)c2cccc(C(=O)Nc3cc(C(=O)O)cc(C(=O)O)c3)c2)cc(C(=O)O)c1` stands 15.8%; under `COc1cc(N2CCOCC2)ncn1`, -3.69%; under `O=S(=O)(c1ccc(Oc2ccccc2)cc1)N1CCOCC1`, 0.463%. Under `CN(Cc1ccon1)C(=O)CC1C(=O)NCCN1Cc1cccc(Oc2ccccc2)c1` (centres unmarked) stands -13.2%. Consider `COc1ccc(Cl)cc1NC(=O)c1sc2nc(C)nc(N3CCOCC3)c2c1C`, for which the “hERG current change (%, negative = inhibition) at 10uM” value is reported as 6.35%. As to `COc1cccc(C(=O)C2CCCN(Cc3ccc(F)cc3)C2)c1` (centres unmarked), the “hERG current change (%, negative = inhibition) at 10uM” value is -18.6%.

Turning to `C=CCNc1ccc(C(=O)O)cc1`, the “hERG current change (%, negative = inhibition) at 10uM” value was -12%. In the case of `COc1ccc(-c2c(-c3ccc(OCC(=O)NN)cc3O)n[nH]c2C)cc1`, the “hERG current change (%, negative = inhibition) at 10uM” value is given as -1.49%. Under `Nc1ccccc1C(=O)NNC1=C(C(=O)C(F)(F)F)CCC1` stands 8.37%; under `Cc1noc(C)c1C(=O)OCC(=O)Nc1ccccc1C(=O)NC(C)c1ccccc1` (centres unmarked), -18.6%; under `COc1cccc(CN(C)C(=O)c2ccc(C)c(S(=O)(=O)N3CCCCC3)c2)c1`, -27%. The result for `CC12CCC(=O)N1C(C(=O)N1CCN(S(=O)(=O)c3ccc(F)c(F)c3)CC1)CS2` (centres unmarked) reads -53.7%.

The values are drawn from publication PMC4336329 (PLoS ONE, 2015).
